Laboratory results published in the supplement of paper PMC10126150.
Sequences with one replicate were seen in a single cluster, so their values are uncertain.

System: ATP
Assay: switch fluorescence ratio, 500 uM ATP over buffer (Cy3 cluster intensity, sum of 5 cycles each) (fold (ratio)); higher = stronger signal-on switching upon ATP binding; sequences stand for … in TCGTCGGCAGCGTCAGATGTGTATAAGAGACAGTTTTTTTTTTTTTTTTTTTTTTTTT…TC
Settings: aptamer strand: ATP DNA aptamer (quencher-CACCTGGGGGAGTATTGCGGAGGAAGG + anchor), 100 nM annealed; ATP concentration: 500 uM; one replicate
Procedure, shortened: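 After annealing to 100 nM quencher-labelled ATP aptamer, Cy3-labelled switching-strand clusters on a modified Illumina MiSeq flow-cell were imaged in selection buffer. A second image followed after 15 min with 500 uM ATP at 22 °C, and five such buffer/ATP cycles were done, each separated by NaOH stripping and re-annealing. The fluorescence ratio, averaged per switch-domain sequence, is summed target-cycle over summed buffer-cycle Cy3 intensity per cluster, with clusters outside 100-1000 RFU excluded.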
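Note: ATP exposure 15 min at 22 °C before imaging.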

Sequence	switch fluorescence ratio
CTAAGCGCCA	1.02
CTAAGCGTAT	1.02
CTAAGCTGGT	1.02
CTAAGGAGAT	0.991
CTAAGGAGCG	0.955
CTAAGGGTGT	1.01
CTAATCTAAT	1.01
CTAATGTTCT	1.01
CTACAAACAC	1.19
CTACAAGCTT	1.03
CTACAATCTT	1.13
CTACAGGGCA	1.04
CTACCAGGGG	1.41
CTACCGGTCA	0.998
CTACCTTGTT	0.957
CTACGAC	1.33
CTACGGACTG	1.42
CTACGGGCAG	0.991
CTACGGGTGA	1.03
CTACGGTTTC	1.31
CTACTAAATG	0.939
CTACTACACT	1.31
CTACTCCGGA	0.992
CTACTGGCAG	0.968
CTACTTGCGG	1.02

Sequence	switch fluorescence ratio
CTAGAGAGTC	1.07
CTAGATCGTC	0.994
CTAGCATGGT	1.09
CTAGCCAGTT	0.985
CTAGCGAGAA	1.08
CTAGCGATA	1.57
CTAGCGCTCG	1.01
CTAGCGTCAC	1.11
CTAGCTAATA	1.13
CTAGCTCCGG	1.1
CTAGCTGGCA	0.985
CTAGCTGGCG	0.917
CTAGGATAGG	0.98
CTAGGCATGT	1
CTAGGCCCTG	0.989
CTAGGCCGGA	1.11
CTAGGCTCGG	0.986
CTAGGGTGGG	1.02
CTAGGTACAG	1.04
CTAGGTCGCG	1.03
CTAGGTGGTC	1.03
CTAGTAAAAT	1.07
CTAGTAGACA	1.04
CTAGTATCCC	1.01
CTAGTCAACA	0.989

Sequence	switch fluorescence ratio
CTAGTCGCTA	0.981
CTAGTGCGAC	1.06
CTAGTGTTCG	0.994
CTATAAGCGT	0.959
CTATACAACA	0.994
CTATACTAAA	1.06
CTATCACCAT	1
CTATCATGCA	1.05
CTATCGGCTG	1.05
CTATGAGGGC	1.02
CTATGATATG	0.989
CTATGCAAGC	2.43
CTATGCTAAC	2.06
CTATGGAGGA	1.01
CTATGGTGAC	1.06
CTATGTAGCC	0.966
CTATGTGGAT	0.982
CTATGTTGAC	0.985
CTATTACAAG	1.03
CTATTACACT	1.04
CTATTCTACC	1
CTATTGAGGT	0.952
CTATTGATGT	1.03
CTATTGCCAA	0.948
CTATTTAAAA	0.987

Sequence	switch fluorescence ratio
CTATTTACGT	1.06
CTATTTCATC	0.956
CTCAAAGGGT	1.03
CTCAAATTGT	0.963
CTCAAGGTTT	0.987
CTCAATTTTT	0.983
CTCACGAGA	1.15
CTCACGAGAA	1.02
CTCACGTAGT	1.05
CTCACTCGAA	1.03
CTCAGCAGCG	1.26
CTCAGCGGGG	1.05
CTCAGGAATT	1.09
CTCAGGATAA	1.14
CTCAGTCGAG	1.03
CTCATATTAA	1.02
CTCATGCGA	2.2
CTCATGCGGA	1.08
CTCATGCTAG	1.03
CTCATTATGT	0.952
CTCATTCCAA	1.07
CTCCAACCGG	1.08
CTCCAAGCGG	1.54
CTCCACAGCC	3.72
CTCCATAAGT	1.03

Sequence	switch fluorescence ratio
CTCCATGGAC	1.49
CTCCCCGTGT	1.64
CTCCCGGGGT	1.5
CTCCCTGATT	1.05
CTCCCTGTTG	1.26
CTCCCTTATG	1.08
CTCCGGGCGT	1.61
CTCCGGTGTA	1.84
CTCCGTATGG	3.53
CTCCTACTAG	1.09
CTCCTCGTGG	1.07
CTCCTGCACT	3.47
CTCCTGTATG	1.04
CTCCTTAGTG	0.956
CTCGAATGAG	1.01
CTCGACAATT	1.14
CTCGACAGTA	1.02
CTCGACTTCC	2.6
CTCGAGGTTA	0.971
CTCGCACCAT	1.15
CTCGCATAAT	2.69
CTCGCATGAA	1.77
CTCGCCAATT	1.59
CTCGGAAAAG	1
CTCGGAGTTT	1.03

Sequence	switch fluorescence ratio
CTCGGCCAGA	1.1
CTCGGGCGTA	0.995
CTCGGGTCCT	0.989
CTCGGGTCTG	0.985
CTCGGTACCG	0.923
CTCGGTGCGC	1.01
CTCGGTGCGG	0.984
CTCGTACAAT	1.24
CTCGTCATAA	1.17
CTCGTCCGA	1.03
CTCGTGAATT	1.01
CTCGTTGGCC	1.06
CTCGTTTTTA	1.02
CTCTAAACTC	1.17
CTCTAAAGA	1.07
CTCTAAATAA	2.33
CTCTACCGTA	1.01
CTCTATTAAG	0.972
CTCTCACTCG	1.02
CTCTCATCTT	1
CTCTCCGGGG	1.32
CTCTCCTAGG	3.99
CTCTCCTTTT	1.04
CTCTCGACGA	1.06
CTCTCGAGCC	1.05

Sequence	switch fluorescence ratio
CTCTCTACTT	0.995
CTCTCTTGTG	0.987
CTCTGCCATT	1.79
CTCTGGACCT	1.35
CTCTGGACT	1.08
CTCTGTATGC	2
CTCTTACGGA	1.01
CTCTTCGGCG	1.11
CTCTTGAACT	0.972
CTCTTGATAA	0.965
CTCTTGCTTG	0.986
CTCTTTCACG	1.05
CTCTTTCCGG	0.939
CTCTTTCGGT	1.01
CTCTTTGGAG	0.989
CTCTTTTTAG	0.997
CTGAAACTTC	0.991
CTGAAAGCGA	2.02
CTGAACAAAT	1.03
CTGAACAGCA	1.27
CTGAACCATC	1.1
CTGAACTGGG	0.983
CTGAATGCAC	2.39
CTGAATTAAT	0.954
CTGAATTGTT	1.01

Sequence	switch fluorescence ratio
CTGACAACT	1.05
CTGACAATTA	1.23
CTGACTGGGA	1.04
CTGAGAACAT	1.02
CTGAGAATTT	1.05
CTGAGACATA	1.04
CTGAGACATT	0.999
CTGAGACGAC	0.987
CTGAGATGTA	1.01
CTGAGCTCGG	1
CTGAGCTTGG	0.981
CTGAGGAGTA	1.02
CTGAGGCTG	1.04
CTGAGTGAAT	1.19
CTGAGTGCTA	1.16
CTGATAAGC	0.923
CTGATCCTTC	1.1
CTGATCTAGA	0.998
CTGATGATGG	0.989
CTGATGTGAA	1.01
CTGATTATAG	1
CTGATTTCAT	0.985
CTGATTTGG	0.967
CTGCAAAA	1.36
CTGCACTGAG	1.04
